Data set [1] has as its system A549 cells. Description: Cytotoxicity assay of ADC (Cell Titer Glo) on A549. The format is cell-based, human.
Data set [2] concerns the target T1, huCDH3 ECD (Homo sapiens, UniProt P22223).
T1 construct: huCDH3 ECD, Uniprot ID: P22223 partial chain; 6xHis (C); made in house
Description: Domain determination binding (ELISA), full ECD. As to conditions: concluded from ELISA on ECD truncations. How it is done:
The binding domains of the antibody drug conjugates to human P-Cadherin extra cellular domain (ECD) were determined by a direct protein binding ELISA. 96-well high protein binding ELISA plates (Nunc) were coated overnight at 4° ° C. with antigens in coating buffer. All wells were washed three time with PBS/0.5%. Tween-20 (v/v) and all the following wash steps in the assay were performed the same. The wells were then blocked for one hour with 2% BSA (Bovogen)/1×PBS (Ca+/Mg+) (Gibco) and washed three times. For the primary antibody binding, the testing antibodies including the BMKs and our antibodies serially diluted in 2% BSA/1×PBS (Ca+/Mg+) were added to the relevant wells and incubated at ambient temperature for two hours. […]
For the binding detection, 100 μL Tetramethylbenzidine (TMB) Substrate solution (Invitrogen) was added to all wells before stopping the reaction with 100 μL 2M HCl. The extent of the testing Abs binding to P-Cadherin ECD (i.e. huCDH3 ECD, Uniprot ID: P22223 partial chain), P-Cadherin ECD domain 1 (aa 108-236), P-Cadherin ECD domain 1+2 (aa 108-348), P-Cadherin ECD domain 1+2+3 (aa 108-461), P-Cadherin ECD domain 1+2+3+4 (aa 108-550) proteins were determined by measuring the OD450-OD540 absorbance using the SpectraMax® M5e microplate reader. […]
(An ELISA detects its analyte on a solid surface through an enzyme-linked reagent.)

Data set [3] concerns Jurkat. Description: Non-specific binding (FACS) on Jurkat. Also on record: species or system human. As to conditions: 10 μg/mL. How it is done:
(§1) Human cell lines were seeded in 96-well plates (BD) at a density of 1×10^5 cells/well. 10 μg/mL antibody samples were added to cells and incubated for 1 h at 4° C. After washing, the cells were resuspended and incubated with PE-conjugated goat anti-human IgG Fc antibody (Jackson) for 30 min. After washing and resuspending, mean fluorescence intensity (MFI) was measured by flow cytometry (BD Canto II) and analyzed by FlowJo.

In data set [4] the test system is MDA-MB-453. Kind of data set: Non-specific binding (FACS) on MDA-MB-453. Also on record: species or system human. The following applies: MDA-MB-453, 10 μg/mL. As to the method:
as §1

The subject of data set [5] is Calu-6. Kind of data set: Non-specific binding (FACS) on Calu-6. Also on record: species or system human. As to conditions: Calu-6, 10 μg/mL. How it is done:
as §1

For data set [6], the system named is HT-29 cells. Kind of data set: Cytotoxicity assay of ADC (Cell Titer Glo) on HT-29. A general note: In ATP-based viability assays light output follows the ATP content of the culture.
For data set [7], the system named is HCC-70 cells. Kind of data set: Cytotoxicity assay of ADC (Cell Titer Glo) on HCC-70. As to conditions: HCC-70, 5 days.

A value given as a limit tells only on which side of the number the result lay.

T1 sequence (P22223 108-654): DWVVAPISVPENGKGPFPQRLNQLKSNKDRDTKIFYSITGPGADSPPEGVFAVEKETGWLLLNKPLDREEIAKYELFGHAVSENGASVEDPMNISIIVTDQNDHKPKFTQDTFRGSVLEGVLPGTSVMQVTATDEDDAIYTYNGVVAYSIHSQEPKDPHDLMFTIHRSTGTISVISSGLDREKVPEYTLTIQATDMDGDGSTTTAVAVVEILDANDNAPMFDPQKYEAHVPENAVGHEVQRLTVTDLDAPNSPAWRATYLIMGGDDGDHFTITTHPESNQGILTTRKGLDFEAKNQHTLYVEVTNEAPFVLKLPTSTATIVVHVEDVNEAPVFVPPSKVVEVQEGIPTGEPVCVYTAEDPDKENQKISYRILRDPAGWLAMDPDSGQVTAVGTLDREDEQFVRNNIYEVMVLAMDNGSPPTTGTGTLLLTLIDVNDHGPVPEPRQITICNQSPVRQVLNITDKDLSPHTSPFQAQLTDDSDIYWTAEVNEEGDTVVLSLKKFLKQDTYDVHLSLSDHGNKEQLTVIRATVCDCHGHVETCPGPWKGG

B1: W3195-1.53.1-p1-uIgG1L-MMAE (conjugate)
heavy: QVQLQESGPGLVKPSETLSLTCTVSGGSVISDNYYWTWVRQPPGKGLEFIGYIYYRGSTNYNPSLKNRVIISIDTSRNQFSLDLNSVTAADTAVYYCARDRRTGNSLPFDNWGQGTLVTVSSASTKGPSVFPLAPSSKSTSGGTAALGCLVKDYFPEPVTVSWNSGALTSGVHTFPAVLQSSGLYSLSSVVTVPSSSLGTQTYICNVNHKPSNTKVDKRV[human IgG1 Fc not written out]
light: SYELTQPPSVSVSPGQTAQITCSGDKLGDKFASWYQQKSGQSPVVVIYQDNKRPSGFPERFSGSNSGNTATLTISGTQAMDEADYYCQAWDSSIVVFGGGTKLTVLGQPKAAPSVTLFPPSSEELQANKATLVCLISDFYPGAVTVAWKADSSPVKAGVETTTPSKQSNNKYAASSYLSLTPEQWKSHRSYSCQVTHEGSTVEKTVAPTECS
For the molecule B1, the IC50 (in general, the midpoint of a concentration-inhibition curve) in data set [1] (A549 (P-cadherin low expressing), 5 days, read-out: IC50 (nM), ADC toxicity) was over 10 nM; in data set [6] (read-out: IC50 (nM), ADC cytotoxicity, HT-29 (P-cadherin low expressing), 5 days) it was over 10 nM. The “Max Inh %” value was −7.8% in data set [1] (A549, 5 days); −4.1% in data set [6] (HT-29, 5 days); 90.7% in data set [7]. For the same molecule, the “binding domain on human P-Cadherin ECD” value in data set [2] was “Domain 3”. Further, the “MFI, non-specific binding” value came out at 63.5 in data set [3], 47.4 in data set [4] and 38.5 in data set [5].

For the origin of these results see US20240239885A1, “ANTIBODY CONJUGATE COMPRISING ANTI-P-CADHERIN ANTIBODY AND USES THEREOF” (WUXI BIOLOGICS IRELAND LIMITED, priority 2021, published 2024).
